Source: PubChem BioAssay AID588342 (National Center for Advancing Translational Sciences (NCATS), 2011)
Screen size: about 360,000 compounds; about 25,000 (6.9%) were called active. This list was built around the results that the source calls inconclusive (neither active nor inactive); the mix of calls is not that of the screen. Calls come from the whole dose curve; as a rule, active = well fitted inhibition curve with a large enough effect; inconclusive = small, poorly fitted or top-dose-only effect; inactive = flat fitted curve, though single readings scatter. Potencies of inconclusive entries are doubtful fits and often do not repeat.

These molecules were tested against Luciferin 4-monooxygenase (Photinus pyralis) (UniProt P08659) (assay: qHTS profiling assay for firefly luciferase inhibitor/activator using purifed enzyme and Km concentrations of substrates (counterscreen for miR-21 project)). Conditions: purified FLuc, luminescence inhibition; activity change, negative = inhibition: at 57.5 µM (top of the series).
Chain of UniProt P08659 (P08659 whole entry, looked up): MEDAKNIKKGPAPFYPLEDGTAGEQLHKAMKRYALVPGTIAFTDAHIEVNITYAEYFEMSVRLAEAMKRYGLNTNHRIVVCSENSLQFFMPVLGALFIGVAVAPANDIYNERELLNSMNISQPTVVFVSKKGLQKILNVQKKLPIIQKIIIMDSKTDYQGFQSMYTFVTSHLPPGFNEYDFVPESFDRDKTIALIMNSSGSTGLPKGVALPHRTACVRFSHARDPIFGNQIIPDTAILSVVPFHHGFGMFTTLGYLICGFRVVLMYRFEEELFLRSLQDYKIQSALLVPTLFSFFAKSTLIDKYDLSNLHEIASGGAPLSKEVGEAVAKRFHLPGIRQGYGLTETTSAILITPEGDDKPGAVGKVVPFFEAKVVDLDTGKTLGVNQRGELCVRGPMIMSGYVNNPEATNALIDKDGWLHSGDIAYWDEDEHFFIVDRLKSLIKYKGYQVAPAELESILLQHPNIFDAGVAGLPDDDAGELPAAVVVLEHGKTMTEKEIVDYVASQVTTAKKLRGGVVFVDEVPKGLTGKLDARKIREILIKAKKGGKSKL
In short: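 Purified P. pyralis luciferase, 10 nM final, with Km-level 10 uM D-luciferin and 10 uM ATP in 50 mM Tris acetate pH 7.5, 10 mM Mg acetate, 0.01% Tween-20, 0.05% BSA; 6-point qHTS titration about 60 µM downward; luminescence read.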
Note: nearly all actives have a fitted effect of over 55% in size.
Potency is the fitted concentration of half-maximal effect; tags give direction and shape of the fitted curve.
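Throughout, for activity change, negative = inhibition: plate controls were vehicle for no effect and reference inhibitor for full effect.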

SMILES	Potency	activity change, negative = inhibition
COc1ccc(-c2cc(C(=O)NCC(C)C)no2)cc1	active: 2.39 µM	
CCOC(=O)c1csc(N/N=C2\CCCc3ccccc32)n1	inconclusive: 30.1 µM [inhibitor, single point]	
CC(=O)Nc1ccc(-c2csc(NCCc3ccccc3)n2)cc1	inconclusive: 26.9 µM [inhibitor, single point]	
Brc1cccc(OCCSc2ncccn2)c1	inconclusive: 23.9 µM [inhibitor, single point]	
COc1ccc(S(=O)(=O)n2nc(OC(C)=O)cc2N(C(C)=O)C(C)=O)cc1	inconclusive: 30.1 µM [inhibitor, partial curve, poor fit]	
CCOc1ccc2nc(NC(=O)CSc3nnnn3C3CCCCC3)sc2c1	inconclusive: 12 µM [inhibitor, partial curve]	
O=C(Cc1ccc(Br)cc1)Nc1cccc(-c2cn3c(n2)SCC3)c1	inconclusive: 30.1 µM [inhibitor, single point]	
COc1ccc(N2C(=O)CC(Sc3nnc(-c4ccccc4)o3)C2=O)cc1 (stereo unspecified)	inconclusive: 37.9 µM [inhibitor, partial curve, poor fit]	
Cc1cc(C)cc(N(CC(=O)Nc2ccccc2C(=O)N2CCOCC2)S(C)(=O)=O)c1		inactive: 1.32%
O=C1c2ccccc2C(=O)N1CCOc1ccccc1Br	active: 23.9 µM	
CC(C)Cn1c(SC(C)C(=O)Nc2ccc(N3CCOCC3)cc2)nc2ccccc21 (stereo unspecified)	inconclusive: 26.9 µM [inhibitor, partial curve, poor fit]	
Cc1ccc(Nc2c(F)c(F)c(F)c(F)c2C(=O)O)cc1	inconclusive: 37.9 µM [inhibitor, single point]	
CCCCSc1nnc(-c2ccccc2)c2ccccc12	inconclusive: 21.3 µM [inhibitor, partial curve, poor fit]	
COc1ccc(-c2nc(SCC(=O)NCCc3ccc(OC)c(OC)c3)n[nH]2)cc1	inconclusive: 30.1 µM [inhibitor, partial curve, poor fit]	
CCc1ccc2c(c1)NC(c1cccs1)=NC(c1ccc(F)cc1)=N2	inconclusive: 30.1 µM [inhibitor, single point]	
Cc1ccsc1/C=N/Nc1cccc(C(=O)O)c1	active: 0.107 µM	
O=c1cnnc(N/N=C/C2CC=CCC2)[nH]1 (stereo unspecified)		inactive: -4.08%
COc1ccc(NC(=O)Cn2c(=O)oc3cc(S(=O)(=O)N4CCC(C)CC4)ccc32)c(OC)c1	inconclusive: 42.6 µM [inhibitor, partial curve, poor fit]	
CCc1c(C)nc2cc(-c3cc(OC)cc(OC)c3)nn2c1N1CCCC1		inactive: -4.04%
Nc1cc(=O)[nH]c(SCC(=O)Nc2cc(S(=O)(=O)N3CCCCC3)ccc2Cl)n1	inconclusive: 23.9 µM [inhibitor, single point]	
CCCc1cc(C(N)=O)c(NC(=O)c2ccoc2C)s1	inconclusive: 26.9 µM [inhibitor, single point]	
CCOc1ccc(Nc2nc(N)c3ccccc3n2)cc1	active: 0.426 µM	
CCCS(=O)(=O)c1c(Nc2ccccc2C)sc(C(=O)c2ccccc2)c1N		inactive: 1.11%
Cc1ccc(NC(=O)Nc2ccon2)cc1Cl	active: 19 µM	

SMILES	Potency	activity change, negative = inhibition
CCC(=O)NCCc1nc2cc(NC(=O)c3cccs3)ccc2n1C	inconclusive: 26.9 µM [inhibitor, single point]	
CCCCC12CN3CCN(CC(C3)/C1=N\NC(=O)Nc1ccccc1)C2		inactive: 2%
CN(C)/C=N/c1sc2c(c1C#N)CCCC2	inconclusive: 21.3 µM [inhibitor, single point]	
COc1cc2[nH]c(=O)n(CCCCCC(=O)N3CCN(c4cccc(C(F)(F)F)c4)CC3)c(=O)c2cc1OC		inactive: -8.49%
CC(=O)Nc1cccc(C(=O)NC2CCCc3c2cnn3-c2ccc(C(C)(C)C)cc2)c1 (stereo unspecified)	inconclusive: 23.9 µM [inhibitor, partial curve]	
CN(C)C(CNc1ncnc2sccc12)c1ccccc1 (stereo unspecified)		inactive: -3.91%
COC(=O)Cn1c(=NC(=O)c2ccc(OC)cc2)sc2cc(OC)ccc21	inconclusive: 2.39 µM [inhibitor, full curve]	
COCCN(C(=O)Cc1cccs1)C(C(=O)NC1CCCC1)c1cc(OC)c(OC)c(OC)c1 (stereo unspecified)	active: 4.78 µM	
O=C(c1ccc(-c2ccc([N+](=O)[O-])cc2)o1)N1CCCC(C(F)(F)F)C1 (stereo unspecified)		inactive: 1.33%
COC(=O)COc1cccc(NC(=O)c2ccccc2)c1	inconclusive: 23.9 µM [inhibitor, partial curve, poor fit]	
Cc1ccc(Nc2nc(-c3cccs3)cs2)nc1	active: 0.239 µM	
O=C(CSc1nncc2ccccc12)Nc1cccc(O)c1	inconclusive: 37.9 µM [inhibitor, single point]	
Cc1ccc2nc3sc(C(=O)Nc4c(C)[nH]c(=O)[nH]c4=O)c(N)c3cc2c1	inconclusive: 2.69 µM [inhibitor, full curve]	
COCCCN(C(=S)Nc1c(C)cc(C)cc1C)C(C)c1ccccn1 (stereo unspecified)		inactive: -1.2%
CC(=O)C1C(=O)c2c(cccc2[N+](=O)[O-])C1=Nc1ccc(S(N)(=O)=O)cc1 (stereo unspecified)	inconclusive: 37.9 µM [inhibitor, single point]	
COc1ccc(-c2nn(-c3ccccc3)cc2/C=N/O)cc1OC	inconclusive: 37.9 µM [inhibitor, single point]	
Cc1cccc(OC(=O)c2cncc(Br)c2)c1	inconclusive: 37.9 µM [inhibitor, partial curve, poor fit]	
COc1ccc(/C=N/Nc2cc(C)nc3ccccc23)cc1	inconclusive: 26.9 µM [inhibitor, partial curve]	
Cc1ccc2[nH]c(O)c(N=Nc3ccccc3C)c2c1	inconclusive: 10.7 µM [inhibitor, partial curve, poor fit]	
CCC(C)/C(C)=N/NC(=O)c1ccc(COc2ccc(Cl)c(C)c2)cc1 (stereo unspecified)	inconclusive: 19 µM [inhibitor, partial curve]	
CC1(C)Cc2c(cnn2-c2ccc(F)cc2)C(NC(=O)CCc2ccncc2)C1 (stereo unspecified)	inconclusive: 37.9 µM [inhibitor, partial curve, poor fit]	
CN(C)c1ccc(C(=O)/C=C/c2cccnc2)cc1	active: 3.01 µM	
CCOC(=O)c1cn(Cc2cccc(C)c2)nn1		inactive: 2.45%
CC1=NN(c2ccc(Cl)c(C(=O)O)c2)C(=O)/C1=C/c1ccc(-c2ccccc2[N+](=O)[O-])o1	active: 4.78 µM	

SMILES	Potency	activity change, negative = inhibition
O=C(Nc1ccccc1Br)C1CCCN(S(=O)(=O)c2cccc3nsnc23)C1 (stereo unspecified)		inactive: -8.82%
C/C(=N/NC(=O)OC(C)(C)C)c1ccco1	active: 19 µM	
COc1ccc(C)cc1Nc1n[n+](-c2ccccc2)c(-c2ccc(SC)cc2)s1	inconclusive: 33.8 µM [inhibitor, single point]	
CCN(Cc1cccs1)C(=O)CN1C(=O)NC2(CCCc3ccccc32)C1=O (stereo unspecified)		inactive: 0.0313%
COCC1CCN(C(=O)c2cc(COc3ccccc3SC)on2)C1 (stereo unspecified)	inconclusive: 37.9 µM [inhibitor, single point]	
N#Cc1nc(COc2ccccc2F)oc1NCCc1ccccc1	inconclusive: 23.9 µM [inhibitor, partial curve, poor fit]	
O=C(Nc1cccc(Cl)c1Cl)c1ccncc1	inconclusive: 6.75 µM [inhibitor, partial curve, poor fit]	
S=C(c1ccc(-c2ccc(Br)cc2)o1)N1CCCCC1	inconclusive: 37.9 µM [inhibitor, single point]	
O=C(O)c1cccc(NC(=O)c2cc(NC(=O)c3ccccc3)cc(NC(=O)c3ccccc3)c2)c1	inconclusive: 37.9 µM [inhibitor, partial curve, poor fit]	
C=C(C(=O)Nc1ccccc1)c1ccc(C)cc1	inconclusive: 26.9 µM [inhibitor, partial curve]	
Cc1ccc(-n2nc(CO)c(C(=O)NCc3ccccn3)n2)cc1C	inconclusive: 15.1 µM [inhibitor, partial curve]	
CSc1nc2ccc(NC(=O)c3nn(C(C)C)c(=O)c4ccccc34)cc2s1	inconclusive: 7.57 µM [inhibitor, partial curve]	
CC1CCn2c(nc3cc(C(=O)NCCc4ccc(Cl)cc4)ccc32)C1 (stereo unspecified)	inconclusive: 26.9 µM [inhibitor, partial curve, poor fit]	
CCOC(=O)c1cnc2ccc(OC)cc2c1NCCc1ccccc1		inactive: -9.03%
CCn1c(C)nc2c(C)[n+](CC(=O)c3ccc(Br)cc3)ccc21	inconclusive: 0.135 µM [inhibitor, full curve]	
O=C(NCc1ccccc1)c1sc(=S)n2c1[nH]c(=O)c1ccccc12	inconclusive: 37.9 µM [inhibitor, partial curve, poor fit]	
CCOC(=O)c1c(C)[nH]c(C(=O)COC(=O)CSC)c1C	active: 10.7 µM	
COc1ccc(OC)c(Nc2ncnc3sc(-c4ccccc4)cc23)c1	inconclusive: 13.5 µM [inhibitor, partial curve]	
COc1ccc(OC)c(-c2csc(NC(=O)c3ccc(F)cc3)n2)c1	active: 10.7 µM	
COc1ccc2c(=O)c(C(=O)NCCc3ccccc3)c[nH]c2c1	active: 16.9 µM	
O=c1c(-c2ccc(Cl)cc2)coc2c(CN3CCOCC3)c(O)ccc12	inconclusive: 30.1 µM [inhibitor, partial curve, poor fit]	
Cc1ccc(C)c(S(=O)(=O)NCc2ccc(C(=O)N3CCCCC3C)cc2)c1 (stereo unspecified)		inactive: -0.0858%
O=C(O)Cc1ccc(-c2ccccc2)cc1	inconclusive: 30.1 µM [inhibitor, partial curve, poor fit]	
